Measurements from PMC4336329 (PLoS ONE, 2015).
In all, about 310,000 compounds went through this assay and about 2,200 (0.71%) showed an effect of 50% or more. Effects have a minus sign here. This is one part of the list.

Target: human ether-à-go-go-related gene (hERG) potassium channel (human, UniProt Q12809)
Experiment: primary screen, population patch clamp on CHO cells stably expressing hERG

Sequence of human ether-à-go-go-related gene (hERG) potassium channel (Q12809 whole entry, looked up): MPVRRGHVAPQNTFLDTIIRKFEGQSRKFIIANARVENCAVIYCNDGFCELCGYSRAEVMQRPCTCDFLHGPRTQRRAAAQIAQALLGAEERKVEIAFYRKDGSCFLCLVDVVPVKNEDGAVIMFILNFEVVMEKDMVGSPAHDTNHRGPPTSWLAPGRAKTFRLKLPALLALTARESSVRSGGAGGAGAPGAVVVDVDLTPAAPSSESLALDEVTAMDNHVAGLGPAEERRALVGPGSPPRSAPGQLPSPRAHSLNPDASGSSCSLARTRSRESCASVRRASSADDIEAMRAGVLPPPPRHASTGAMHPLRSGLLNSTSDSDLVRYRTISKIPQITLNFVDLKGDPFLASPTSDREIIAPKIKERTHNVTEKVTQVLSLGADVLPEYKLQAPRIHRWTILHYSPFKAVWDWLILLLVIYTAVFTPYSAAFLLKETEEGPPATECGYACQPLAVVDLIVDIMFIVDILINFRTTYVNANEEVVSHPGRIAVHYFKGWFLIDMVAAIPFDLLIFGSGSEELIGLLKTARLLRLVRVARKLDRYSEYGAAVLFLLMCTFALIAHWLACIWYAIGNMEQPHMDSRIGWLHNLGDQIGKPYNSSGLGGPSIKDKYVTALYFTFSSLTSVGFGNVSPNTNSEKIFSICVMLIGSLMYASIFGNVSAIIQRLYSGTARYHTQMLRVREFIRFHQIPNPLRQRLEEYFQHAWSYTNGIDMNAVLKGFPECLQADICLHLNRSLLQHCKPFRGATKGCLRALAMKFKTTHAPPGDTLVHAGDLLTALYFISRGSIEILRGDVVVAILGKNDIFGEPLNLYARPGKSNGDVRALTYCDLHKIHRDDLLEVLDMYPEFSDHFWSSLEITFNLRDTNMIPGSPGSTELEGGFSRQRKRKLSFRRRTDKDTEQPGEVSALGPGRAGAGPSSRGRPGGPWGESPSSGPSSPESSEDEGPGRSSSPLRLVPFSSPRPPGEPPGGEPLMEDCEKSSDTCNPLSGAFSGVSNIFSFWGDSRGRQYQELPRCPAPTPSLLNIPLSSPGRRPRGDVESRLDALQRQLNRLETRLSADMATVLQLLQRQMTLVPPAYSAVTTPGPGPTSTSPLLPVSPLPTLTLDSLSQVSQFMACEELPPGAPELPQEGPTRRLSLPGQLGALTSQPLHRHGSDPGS

| SMILES | hERG current change (%, negative = inhibition) at 1uM [%] |
| --- | --- |
| CC(NC(=O)CSc1ncccn1)c1ccc(Cl)cc1Cl (stereo not drawn) | 30 |
| COc1ccc(NC(=O)CN(C)Cc2c(F)cccc2Cl)cc1S(=O)(=O)N1CCCCC1 | 14.1 |
| CCOC(=O)c1cnc2c(F)ccc(F)c2c1Sc1ccccc1 | 5.26 |
| COc1cccc(NC(=O)CN2CCC(C)CC2)c1 | 4.13 |
| O=[N+]([O-])c1cc(-c2csc(NC(CO)c3nc4ccccc4n3CCOCCO)n2)ccc1Cl (stereo not drawn) | 7.42 |
| CCCC[C@H]1COCCS(=O)(=O)N1Cc1ccc(C)cc1 | 8.5 |
| COc1ccccc1C(=O)Nc1ccnn1C1CCN(C2CCSCC2)CC1 | -44.5 |
| O=S(=O)(c1cccc(COc2c(Cl)cccc2Cl)c1)N1CCOCC1 | 2.7 |
| CSCCC(NC(=O)c1cc(C(C)(C)C)oc1C)C(=O)O (stereo not drawn) | 15.6 |
| CC1CC(C)CN(S(=O)(=O)c2ccc(C(=O)NCc3ccco3)cc2)C1 (stereo not drawn) | 0.824 |
| COc1ccccc1OP(=O)(Nc1ccc(Br)cc1)Oc1ccccc1OC | 13.9 |
| CCCOC(=O)CSC1=C(C#N)C(c2ccc3c(c2)OCO3)CC(=O)N1 (stereo not drawn) | 7.14 |
| COc1cc(/C=N/N2CCN(c3ccc(Cl)cc3)CC2)cc(OC)c1OC(C)=O | 9.11 |
| COc1ccc(CNC(=O)C2=CC(c3ccc(C)cc3)=NS(=O)(=O)N2C)cc1 | 5.85 |
| Cc1cc(C)cc(NC(=O)C2CCC(CNC(=O)[C@@H]3Cc4ccccc4CN3)CC2)c1 (stereo partly drawn) | 6.54 |
| O=C(Cc1ccccc1)Nc1ccc(F)cc1 | 12.8 |
| O=C(NCc1ccccn1)C1CCCN(S(=O)(=O)c2ccc(Br)cc2)C1 (stereo not drawn) | -1.52 |
| C/C(CC(C)(C)C1CCCCC1)=N\NC(N)=S | 11.9 |
| C=C[C@@H]1c2c(F)cccc2N(S(=O)(=O)c2ccc(C)cc2)[C@H](c2ccc(C(=O)OC)cc2)C1(C#N)C#N | 14.3 |
| COc1cc(CN(C2CCCCC2)S(=O)(=O)c2ccc(S(=O)(=O)N(C)C3CCCCC3)cc2)cc(OC)c1OC | 4.74 |
| COc1cccc(OCC(=O)NN=C2c3ccccc3-c3ccccc32)c1 | 0.0134 |
| O=c1cc(CSc2ccc(Cl)cc2)nc(-c2ccccc2)[nH]1 | 4 |
| Nc1nc2ccccc2n1CCOc1ccc(Cl)cc1 | 0.404 |
| COc1ccc(C(Nc2ccccc2)P(=O)(Oc2ccccc2)Oc2ccccc2)cc1 (stereo not drawn) | 17.5 |
| CN(C)C(=O)c1ccc(OCC(F)(F)F)nc1 | 10.1 |
| O=C(c1ccc(F)cc1)N1CCC(C(=O)N2CCN(S(=O)(=O)c3cccc(Cl)c3)CC2)CC1 | -16.9 |
| COc1ccc(CCN(C)C(=O)c2cc(S(=O)(=O)NCc3ccccc3)ccc2C)cc1OC | 4.37 |

| SMILES | hERG current change (%, negative = inhibition) at 1uM [%] |
| --- | --- |
| CCOC(=O)/C(=N\Nc1ncnc2ccccc12)c1ccc(C)cc1 | 5.92 |
| Cc1cc(C)cc(-n2c(SCC(=O)NCc3ccc4c(c3)OCO4)nc3ccccc3c2=O)c1 | 13.4 |
| COc1ccc(NS(=O)(=O)c2ccc(C(=O)N3CCN(Cc4ccccc4)CC3)cc2)cc1 | -4.78 |
| CC(CCN1C(Nc2ccccc2)=NC[C@@H]1Cc1ccccc1)c1ccccc1 (stereo partly drawn) | -52.7 |
| COc1cccc(-c2nn(-c3ccccc3)cc2C(=O)n2nnc3ccccc32)c1 | -4.53 |
| CN1C(=O)CSc2ccc(NC(=O)NCc3ccccc3)cc21 | 4.71 |
| COc1cc(/C=N/O)cc(Cl)c1OC | 11.5 |
| COCCCNC(=O)C1CCN(S(=O)(=O)c2ccc3nc4c(c(C(=O)O)c3c2)CCCCC4)CC1 | 23.7 |
| CCN(Cc1ccccc1)C(=O)CCc1nc(-c2ccc(C)cc2)no1 | -0.651 |
| O=C(NC(=O)c1ccccc1)OCC1CCCN2CCCCC12 (stereo not drawn) | -34.3 |
| Cc1nnsc1S(=O)c1ccccc1Cl (stereo not drawn) | 13.5 |
| CC(C)(C)OC(=O)NC(Cc1ccccc1)C(=O)O (stereo not drawn) | -30.6 |
| CCc1cccc(NC(=O)CCS(=O)(=O)c2cccc3nonc23)c1 | 5.12 |
| CCOc1ccccc1-n1c(SCC(N)=O)nnc1-c1cccnc1 | 1.95 |
| CC(C)Oc1ccc(N2CC(C(=O)Nc3ccc(N4CCOCC4)cc3)CC2=O)cc1 (stereo not drawn) | 24.6 |
| Cc1ccc(N(C)S(=O)(=O)c2cccc(C(=O)NCC(c3ccco3)N3CCCC3)c2)cc1 (stereo not drawn) | -11.3 |
| O=S(=O)(Nc1nnc(C2CC2)s1)c1ccccc1 | 10.6 |
| C=CCOc1c(CNc2ccc(S(N)(=O)=O)cc2)cccc1OC | 12.6 |
| O=C(Nc1cccc(Oc2c(F)c(F)c(F)c(F)c2F)c1)N1C[C@@H]2C[C@@H](C1)c1cccc(=O)n1C2 | 3.4 |
| Cc1ccc(N2C(=O)NC(=O)/C(=C\c3cc(C)n(-c4sc5c(c4C#N)CCCC5)c3C)C2=O)cc1 | -3.1 |
| CN1CCN(S(=O)(=O)c2ccc(NC(=O)c3ccccc3F)cc2)CC1 | 9.99 |
| COc1ccc2cc(C(=O)N/N=C/c3cc(OC)c(OC)c(OC)c3)[nH]c2c1 | 12.3 |
| CCOC(=O)N1CCN(CC(=O)Nc2ccc(OC)cc2)CC1 | 9.1 |
| O=[N+]([O-])c1ccc(-c2nn(-c3ccccc3)cc2/C=N/n2c(-c3ccncc3)n[nH]c2=S)cc1 | 13.5 |
| CCCc1cc(=O)[nH]c(Nc2ccc(Cl)cc2)n1 | 2.78 |
| COc1ccc(/C=N/NC(=O)c2ccc(Br)o2)cc1Cn1cc([N+](=O)[O-])cn1 | -0.0386 |
| Cc1cc(C)c(NC(=S)N(CCN(C)C)Cc2cccs2)c(C)c1 | 13.7 |
